Source: paper PMC4336329 (PLoS ONE, 2015)
Screen size: about 310,000 compounds; about 14,000 (4.5%) showed an effect of 50% or more. Effects have a minus sign here. This is one part of the list.

molecular target: human ether-à-go-go-related gene (hERG) potassium channel (human, UniProt Q12809); test: primary screen, population patch clamp on CHO cells stably expressing hERG
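Note: peak tail current of the secondary pulse compared with the same well before compound.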

human ether-à-go-go-related gene (hERG) potassium channel, sequence (Q12809 whole entry, looked up): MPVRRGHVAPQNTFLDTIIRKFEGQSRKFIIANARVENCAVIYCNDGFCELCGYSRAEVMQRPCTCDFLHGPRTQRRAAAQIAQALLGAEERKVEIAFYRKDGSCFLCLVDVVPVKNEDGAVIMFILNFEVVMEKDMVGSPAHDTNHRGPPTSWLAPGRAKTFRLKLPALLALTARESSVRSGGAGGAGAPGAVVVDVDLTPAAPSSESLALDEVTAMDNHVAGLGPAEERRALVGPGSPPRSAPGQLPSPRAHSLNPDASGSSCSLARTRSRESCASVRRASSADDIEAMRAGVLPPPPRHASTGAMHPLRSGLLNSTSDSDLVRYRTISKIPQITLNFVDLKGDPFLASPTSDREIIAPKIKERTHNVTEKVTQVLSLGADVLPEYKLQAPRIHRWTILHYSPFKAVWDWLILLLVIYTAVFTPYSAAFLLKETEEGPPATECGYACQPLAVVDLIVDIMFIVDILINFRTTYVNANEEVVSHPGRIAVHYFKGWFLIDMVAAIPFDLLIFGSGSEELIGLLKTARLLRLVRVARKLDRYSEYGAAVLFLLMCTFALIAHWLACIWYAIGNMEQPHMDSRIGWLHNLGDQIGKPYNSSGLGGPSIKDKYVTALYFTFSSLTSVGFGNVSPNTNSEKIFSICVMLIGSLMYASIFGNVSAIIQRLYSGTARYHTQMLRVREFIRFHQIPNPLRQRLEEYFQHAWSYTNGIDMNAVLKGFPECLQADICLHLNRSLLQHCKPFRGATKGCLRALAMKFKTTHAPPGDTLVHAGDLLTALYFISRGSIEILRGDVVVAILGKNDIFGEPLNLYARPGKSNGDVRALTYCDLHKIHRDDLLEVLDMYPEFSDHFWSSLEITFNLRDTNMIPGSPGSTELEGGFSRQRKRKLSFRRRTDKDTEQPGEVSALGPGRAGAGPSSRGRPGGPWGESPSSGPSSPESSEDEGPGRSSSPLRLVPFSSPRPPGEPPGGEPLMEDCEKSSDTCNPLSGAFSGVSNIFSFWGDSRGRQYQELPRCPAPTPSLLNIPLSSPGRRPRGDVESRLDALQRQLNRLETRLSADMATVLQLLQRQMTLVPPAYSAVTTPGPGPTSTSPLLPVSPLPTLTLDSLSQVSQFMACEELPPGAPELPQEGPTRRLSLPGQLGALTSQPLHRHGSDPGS

Compound | hERG current change (%, negative = inhibition) at 10uM
O=C(NCCc1ccccc1)c1ccc2nc3cc(Cl)ccc3c(=O)n2c1 | 14.1%
O=C(N/N=C/c1ccc([N+](=O)[O-])o1)c1cn2ccc3ccccc3c2n1 | -7.47%
C=CCc1ccccc1OCC(O)CNC(C)C.Cl (centres unmarked) | -33.3%
Cn1c(SCC(=O)NCC2CCCO2)ncc(C(=O)Nc2ccc(F)cc2)c1=O (centres unmarked) | -13.5%
Cc1ccc(NC2CCCN(C(=O)c3ccoc3)C2)cc1C (centres unmarked) | 13.8%
CCN(Cc1ccncc1)C(=O)c1cccs1 | 2%
Cc1noc(C)c1CSc1nnc(-c2ccncc2)n1-c1ccc(Cl)c(Cl)c1 | -12.8%
O=C(CCl)NN1C(=O)NC(c2ccccc2)(c2ccccc2)C1=O | 11.2%
Cc1ccc(SCC(=O)OCC(=O)Nc2ccc3[nH]c(=O)[nH]c3c2)cc1C | 12.5%
COc1cc(NC(=O)Cc2ccc(S(=O)(=O)N3CCOCC3)s2)c(OC)cc1Cl | -13.1%
O=C(CSc1ccccc1F)NCCCN1CCCC1=O | 14.9%
NC(=O)c1nsc(C(=O)N(c2ccccc2)C(C(=O)NCC2CCCO2)c2cccs2)c1N (centres unmarked) | 9.06%
Cc1ccc(C(C)(C)C)cc1S(=O)(=O)N1CCC(C(=O)N2CCN(c3ccc(O)cc3)CC2)CC1 | 2.64%
CCn1nc(C(=O)N2CCc3ccccc3C2)c2ccccc2c1=O | -13.6%
Cc1cccc(C)c1NC(=O)CSc1nnc(-c2ccco2)n1N | -4.1%
O=C(Cn1cnc2cc([N+](=O)[O-])ccc2c1=O)Nc1cccc2ccccc12 | -5.73%
O=C(NCc1ccco1)c1nnc(Cc2ccc(F)cc2)o1 | -4.47%
CCOC(=O)Cc1csc(NC(=O)C(C)(C)C)n1 | 13%
CCN(CC(O)Cn1c2ccccc2c2ccccc21)S(=O)(=O)c1ccc(C)cc1 (centres unmarked) | 15.1%
O/N=C1/CCCSc2ccccc21 | -4.9%
Cc1ccc(S(=O)(=O)N(C)C)cc1NC(=S)N(C)C1CCN(C)CC1 | 16.2%
C=C(C)CN1C(=O)C(O)(CC(=O)c2ccc3c(c2)OCCO3)c2ccccc21 (centres unmarked) | -9.08%

Compound | hERG current change (%, negative = inhibition) at 10uM
C/C(=N\NC(=O)C(=O)Nc1cc(Cl)ccc1Cl)c1ccncc1 | -4.88%
Cc1ccc(C)c(NC(=O)N2CCCCCC2)c1 | 5.79%
O=C(COC(=O)c1ccc(CO)cc1)NCc1cccs1 | 8.52%
C=CCn1c(SCC(=O)Nc2c(C)cccc2C)nnc1-c1cnccn1 | -2.77%
Cc1cc(=O)oc(C)c1C(=O)n1nc(C)c2c1C[C@@H]1[C@H]2C1(C)C | 0.302%
CCCCCN(C(=O)CCC(=O)OCC(=O)Nc1cccc(CC)c1)c1c(N)n(CCCC)c(=O)[nH]c1=O | 7.86%
Cn1cc(C(=O)N2CCN(C(=O)c3ccco3)CC2)c2c3ccccc3n(C)c2c1=O | -22.8%
CCc1nn(CC(=O)N2CCC3(CC2)OCCO3)c(=O)c2cc3ccccc3n12 | -8.07%
COc1ccccc1NC(=O)/C=C\c1ccco1 | -0.482%
Cl.O=C(O)c1cccc(Nc2nc(-c3ccccc3)nc3ccccc23)c1 | 23.3%
CCOC(=O)N1CCC(N2C(=O)c3ccccc3C2Nc2ccc3c(c2)OCCO3)CC1 (centres unmarked) | -7.43%
CC(=C\c1ccccc1)/C=C1/SC(=S)N(CCCC(=O)O)C1=O | 42.6%
CCOC(=O)N1CCN(CC(=O)Nc2cc(OC)c(OC)cc2C#N)CC1 | 23.4%
CC1CCCN(C(=O)CSc2nc3ccccc3o2)C1 (centres unmarked) | -11.7%
CC1CCCCN1S(=O)(=O)c1ccc(S(=O)(=O)N2CCN(c3ccc(F)cc3)CC2)cc1 (centres unmarked) | -4.33%
COCC(C)NC(=O)c1cc2c(ccc3ccccc32)oc1=O (centres unmarked) | 22.8%
O=C(N/N=C/c1ccccc1Cl)c1ccc(F)cc1 | 15%
Cc1cc2ncc(-c3cccc(Cl)c3)cn2n1 | 8.42%
CC(Oc1ccccc1)C(=O)Nc1cccc(F)c1 (centres unmarked) | 12.5%
Cc1ccc(C(=O)NNC(=O)CSc2nnc(CNc3ccc(F)cc3)n2C)cc1 | 35.3%
NC(=O)c1cc2ccccc2o/c1=N\NC(=O)c1ccncc1 | -17.1%
CCN(CC)c1ccc([N+](=O)[O-])cc1C(=O)O | 21.3%
